In all, about 310,000 compounds went through this assay and about 14,000 (4.5%) showed an effect of 50% or more. Effects have a minus sign here. This is one part of the list.
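Also: peak tail current of the secondary pulse compared with the same well before compound.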

In the assay the target is human ether-à-go-go-related gene (hERG) potassium channel (human, UniProt Q12809). As to the kind of experiment: primary screen, population patch clamp on CHO cells stably expressing hERG.
human ether-à-go-go-related gene (hERG) potassium channel, sequence (Q12809 whole entry, looked up): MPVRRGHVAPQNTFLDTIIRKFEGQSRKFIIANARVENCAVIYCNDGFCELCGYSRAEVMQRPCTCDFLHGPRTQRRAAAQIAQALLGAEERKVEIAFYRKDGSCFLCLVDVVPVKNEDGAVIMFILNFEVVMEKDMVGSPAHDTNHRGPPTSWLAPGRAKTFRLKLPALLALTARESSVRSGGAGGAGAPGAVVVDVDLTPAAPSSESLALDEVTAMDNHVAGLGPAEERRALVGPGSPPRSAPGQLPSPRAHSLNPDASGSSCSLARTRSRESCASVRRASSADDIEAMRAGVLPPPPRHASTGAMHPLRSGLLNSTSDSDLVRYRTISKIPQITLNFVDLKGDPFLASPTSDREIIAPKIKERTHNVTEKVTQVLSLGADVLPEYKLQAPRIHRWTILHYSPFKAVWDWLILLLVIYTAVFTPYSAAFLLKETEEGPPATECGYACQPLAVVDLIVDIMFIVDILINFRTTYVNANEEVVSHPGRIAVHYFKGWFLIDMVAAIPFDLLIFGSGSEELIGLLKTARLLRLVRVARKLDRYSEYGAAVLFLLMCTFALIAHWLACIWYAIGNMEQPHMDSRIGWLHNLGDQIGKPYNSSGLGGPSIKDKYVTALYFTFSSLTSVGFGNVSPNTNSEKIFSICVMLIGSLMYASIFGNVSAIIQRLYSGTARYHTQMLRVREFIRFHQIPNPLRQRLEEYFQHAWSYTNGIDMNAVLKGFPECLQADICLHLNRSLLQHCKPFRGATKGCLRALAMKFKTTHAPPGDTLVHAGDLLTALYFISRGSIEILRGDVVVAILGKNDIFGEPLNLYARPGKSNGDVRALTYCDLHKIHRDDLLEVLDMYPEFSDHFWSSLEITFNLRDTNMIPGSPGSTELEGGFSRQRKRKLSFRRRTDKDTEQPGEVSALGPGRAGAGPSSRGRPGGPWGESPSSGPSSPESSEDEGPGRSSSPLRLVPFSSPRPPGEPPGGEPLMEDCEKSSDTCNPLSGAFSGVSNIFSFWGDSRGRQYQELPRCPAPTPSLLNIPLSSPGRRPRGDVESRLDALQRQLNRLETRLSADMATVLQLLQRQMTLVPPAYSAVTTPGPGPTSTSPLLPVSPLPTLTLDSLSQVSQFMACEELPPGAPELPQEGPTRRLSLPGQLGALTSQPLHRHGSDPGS
Take `COc1cccc(N2CCN(C3CC(=O)N(c4ccc(Cl)cc4)C3=O)CC2)c1` (stereo not drawn): the “hERG current change (%, negative = inhibition) at 10uM” value is -12.3%.
Next, `CCOC(=O)c1ccccc1-n1c(C)cc(C2N=C(N)Nc3nc4ccccc4n32)c1C` (stereo not drawn): 4.23%.
On to `CNC(=O)Cn1nc(-c2ccc(C)cc2)c2ccccc2c1=O`, for which the “hERG current change (%, negative = inhibition) at 10uM” value was -3.12%.
Under `Cc1cc(C)n(CC(O)COc2ccc(F)cc2)n1` (stereo not drawn) stands 9.76%; under `O=C1CC2OCC=C3CN4CCC56c7cc([N+](=O)[O-])ccc7N1C5C2C3CC46` (stereo not drawn), -22.4%.
Next, `C/C(=C\c1ccccc1)C(=O)NCCN1CCOCC1`: 6.31%; `Cc1ccc(CC(=O)Nc2ccc(S(=O)(=O)Nc3nccc(C)n3)cc2)cc1`: 1.2%.
As to `CCc1ccc(C2C(C#N)=C(N)N(N3CCOCC3)C3=C2C(=O)CC(C)(C)C3)s1` (stereo not drawn), the “hERG current change (%, negative = inhibition) at 10uM” value is recorded as -15.8%.
Next, `CCCCN(Cc1ccco1)S(=O)(=O)c1c[nH]c(C(=O)OC)c1`: -4.24%.
Under `COc1ccc(-c2n[nH]c(=S)n2-c2ccc(Br)cc2)cc1OC` stands 20.3%; under `COc1ccc(NC2CCCN(C(=O)c3ccc4[nH]c(C)c(C)c4c3)C2)cc1` (stereo not drawn), 9.05%; under `Cc1ccc(CNC(=O)CSCc2ccccc2F)cc1`, -2.9%.
Under `CCCCOc1ccc(-c2ncc(C(=O)OCC)c(N)n2)cc1` stands 7.2%; under `COC(=O)Cn1c(=NC(=O)CSCC(=O)Nc2cc(C)on2)sc2ccccc21`, 14.6%; under `CC(C)CC(CO)N1CCN(C(=O)c2ccccc2)CCC1=O` (stereo not drawn), 4.64%.
`CN1C(=O)NC(NC(=O)c2cccs2)(C(F)(F)F)C1=O` (stereo not drawn): the “hERG current change (%, negative = inhibition) at 10uM” value turned out to be 9.22%.
Next, `Cc1cccc(Cc2nnc(CCC(=O)NCc3cnc4ccccn34)o2)c1`: 8.6%.
Under `c1ccc(CSc2ncnc3c2oc2ccccc23)cc1` stands 8.6%; under `CCCCCCSc1ccc([C@@H]2[C@H]3C(=O)N(C)C(=O)[C@H]3[C@]3(C(=O)OC)CCCCN23)cc1OC.O=C(O)C(F)(F)F`, -9.82%; under `CCCCCC(=O)Nc1ccc(S(=O)(=O)NC2=NCCCCC2)cc1`, -1.68%.
Consider `CN(C1CC(C)(C)N(O)C(C)(C)C1)S(=O)(=O)CC12CCC(CC1=O)C2(C)C.Cl` (stereo not drawn), for which the “hERG current change (%, negative = inhibition) at 10uM” value was found to be 21.8%.
Regarding `Cc1nc(CN(C)Cc2nc(Cc3ccccc3Cl)no2)cs1`, the “hERG current change (%, negative = inhibition) at 10uM” value is recorded as -7.91%.
On to `COc1ccc(/C=C2/C(=O)N(c3ccccc3)N=C2C)cc1Br`, for which the “hERG current change (%, negative = inhibition) at 10uM” value is given as 21.9%.
Next, `Cc1nc(-c2cn[nH]c2)c2cc(C)oc2n1`: 9.4%.
On to `C=CCOC(=O)C1=C(C)N=C2SCCC(=O)N2C1c1ccc(OC(=O)c2ccco2)cc1` (stereo not drawn), for which the “hERG current change (%, negative = inhibition) at 10uM” value is -14.6%.
Under `CN(C)/C=C/C(=O)Oc1ccc(Cl)cc1Cl` stands -4.2%; under `O=C(NCc1ccc2c(c1)OCO2)C1CCCN1C(=O)Nc1ccc(Cl)cc1` (stereo not drawn), -17.4%.
On to `COc1cc(NC(=O)CN2C(=O)c3ccccc3S2(=O)=O)c(OC)cc1Cl.Cl`, for which the “hERG current change (%, negative = inhibition) at 10uM” value is 11.6%.
Under `COc1ccccc1/C=C/C=C1\Oc2c(ccc(O)c2CN2CCN(CCO)CC2)C1=O` stands 0.369%.
Take `Br.C=CCN1C(c2ccc(OCC)cc2)=CS/C1=C(\C#N)c1nnc2n1CCCCC2`: the “hERG current change (%, negative = inhibition) at 10uM” value is given as -37.9%.
Under `Cc1ccc2c(C)ccc(O)c2n1` stands 5.84%; under `CCS(=O)(=O)Nc1ccccc1C(N)=O`, 27.4%; under `COC(=O)C(C)Nc1cccc(Br)c1` (stereo not drawn), -3.22%.
`Cc1ccc(C(=O)Nc2nnc(S(=O)(=O)N3CCCCCC3)s2)cc1`: the “hERG current change (%, negative = inhibition) at 10uM” value turned out to be 3.08%.
Under `N#CC1=C(N)Oc2cc3ccccc3cc2C1c1cccs1` (stereo not drawn) stands 20%; under `Cc1cc(=O)[nH]c2nnnn12`, 4.44%.
On to `CCOc1ccc2[nH]c(=O)c(CN(CCCN3CCOCC3)Cc3nnnn3Cc3ccc(OC)cc3)cc2c1`, for which the “hERG current change (%, negative = inhibition) at 10uM” value was -60.9%.
Next, `CC(=NCc1ccco1)c1c(C(F)(F)F)[nH]n(-c2nc3ccccc3s2)c1=O`: -4.48%; `COc1ccc(OC)c(S(=O)(=O)N2c3cc(F)ccc3CCC2C)c1` (stereo not drawn): 4.48%.
Under `O=C(O)CN1C(=O)/C(=C\c2ccccc2OCc2ccc(Cl)cc2)SC1=S` stands 15.3%.
On to `Cc1ccc(C(=O)NCC(=O)NCC(c2cccs2)N2CCOCC2)cc1C` (stereo not drawn), for which the “hERG current change (%, negative = inhibition) at 10uM” value is listed as -1.92%.
Under `CCOC(=O)C1=C(C)Nc2ncnn2C1c1ccc(N(C)C)cc1` (stereo not drawn) stands 0.716%; under `O=S(=O)(Nc1ccon1)c1ccc(Br)cc1`, 10.7%.
Under `Cc1cccc(-c2nc(C#N)c(N3CCCCCC3)o2)c1` stands 1.92%.
In the case of `COc1ccccc1NC(=O)Nc1cccc(NC(C)=O)c1`, the “hERG current change (%, negative = inhibition) at 10uM” value amounted to 17.2%.

These data come from PMC4336329 (PLoS ONE, 2015).
